According to ChEMBL document CHEMBL4888484, “Replenishing the malaria drug discovery pipeline: Screening and hit evaluation of the MMV Hit Generation Library 1 (HGL1) against asexual blood stage Plasmodium falciparum ,using a nano luciferase reporter read-out” (2022):
Among all 150,000 compounds or so, about 540 (0.36%) showed an effect of 50% or more. The list shows a part of the results.

system: Plasmodium falciparum; experiment: Primary screen in NF54 nanoGlo assay, in single point, at 2uM, 72h; a lower Z score goes with more inhibition; type: functional, Erythrocyte; settings: timepoint 72 hour

Compound	% Inhibition [%]	Z score
COCc1nc(CN(C)CCc2scnc2C)no1	-2	0.25
Fc1ccccc1N1CCC(N2CCO[C@H](C(F)(F)F)C2)CC1	15	-2.02
O=C(NCc1ccccc1CN1CCC[C@@H]1CO)c1ccc(F)c2ccncc12	-1	0.14
CCCc1cc([C@@H]2CCCN2Cc2ccc(F)c(Br)c2)no1	-7	0.95
N#Cc1cncc(N2CC3CCC2C2CN(Cc4ccccc4)CC32)n1 (centres undefined)	-7	1.41
CCn1cnnc1CNC(=O)c1ccncc1	-5	1
COc1cc(C(=O)Nc2ccc(C)c(N3CCCCC3=O)c2)cc(OC)c1OC	-4	0.66
C[C@@H](C(=O)Nc1cnn(C)c1C(F)F)c1cccc(O)c1	-8	1.53
CC(C)C1(NC(=O)CNC(=O)c2cscn2)CC1	-4	0.53
CN(CCC#N)C(=O)c1cnn(C(C)(C)C)c1	-11	1.58
CCN(CC(=O)Nc1ccc(NC(C)=O)cc1)C(=O)N(c1ccccc1)c1ccccc1	0	-0.08
CN(C(=O)Nc1ccc(-n2cnnn2)cc1)[C@@H]1CCN(Cc2ccccc2)C1	-7	0.87
CC(C)(C)c1csc(CN2CCC[C@H]2C(=O)O)n1	-5	0.77
NC(=NCCOc1ncc(Cl)cc1Cl)N1CCCCC1	-3	0.47
COCCOCCN(Cc1ccccc1)C(=O)c1cnc(-c2ccccc2Cl)s1	-12	1.87
OCC(Cc1ccccc1)NCCNC(CO)Cc1ccccc1 (centres undefined)	1	-0.21
CC(=O)NCCn1ccnc1-c1ccccc1OCc1ccccc1	-17	2.45
CN(CC1CCCC1O)C(=O)NCCC1CCCO1 (centres undefined)	-10	1.1
COc1cccc(CNC(=O)C(C)(C)S(C)(=O)=O)c1	-3	0.55
COc1ncc(CN(CCN(C)C)C2CCCCC2)cn1	10	-1.37
Fc1cccc(Cl)c1Cn1ncnc1Cc1cscn1	-5	0.98
CCO[C@H]1COC[C@@H]1NC(=O)c1nc2c(s1)CCCC2	-2	0.36

Compound	% Inhibition [%]	Z score
Fc1ccc2oc(N3CCC[C@@]4(CCOC4)C3)nc2c1	-12	1.89
Cc1cc(N(C)C[C@H](O)COc2ccc3c(c2)OCO3)nc(N)n1	5	-0.55
C[C@](O)(C1CCN(C(=O)c2ccc(-n3ccnn3)cc2)CC1)C(F)(F)F	-2	0.27
Nc1nc(N2CCC3(CC2)N=C(c2ccccc2)NC3=O)c2cn[nH]c2n1	-3	0.5
COc1ccc(-c2cn(-c3ccc(OC)cc3)c(=O)n2-c2ccccc2)cc1	-14	1.61
COCC1CCN(C(=O)N[C@H](c2nccn2C)C2CC2)CC1	-15	1.69
CCN(CC)[C@@]1(c2nnnn2C2CCCC2)CCN(C(=O)c2ccncc2)C1	-3	0.43
CCOCCC1(CNC(=O)Nc2ccn(C)n2)CCCC1	2	-0.18
CC(C)(C)n1ncc2c(=O)[nH]c(NCCc3ccoc3)nc21	-12	2.34
C[C@H](NC(=O)Nc1cccc(C(=O)N2CCN(C)CC2)c1)c1ccc(F)cc1	12	-2.32
CC1CCCN(C(=O)C2CCC2)C1CN (centres undefined)	-3	0.43
O=C(NCC(=O)OC1CCCCC1)Nc1ccccc1C(F)(F)F	-2	0.17
C=C(C)[C@H]1OCC[C@H]1C(=O)NCC1CC(O)CN1Cc1ccccc1 (some centres undefined)	-11	0.95
CCc1nc(CNC(=O)CCc2c[nH]c3cccc(C)c23)n[nH]1	-7	1.28
O=S(=O)(Cc1ccccc1)NC[C@H]1CCN(Cc2ccco2)C1	1	-0.13
CN1CCc2[nH]nc(C(=O)N3CCC(c4ccncn4)CC3)c2C1	6	-1.05
O=C(Nc1nc(C2CC2)cs1)N1CC(c2ccccc2F)C1	-1	0.09
Cc1cc(C(=O)NCC2(c3ccccn3)CC2)no1	-14	2.21
COC(=O)C1CCN2C(=O)N(c3ccc(OCC(C)C)nc3)C(=O)C2C1 (centres undefined)	1	-0.13
COCCn1cc(CC(=O)Nc2cccc(C)c2)c2cccnc21	-16	1.89
CCC(=O)N1CCCN(C(=O)c2cccc3cn[nH]c23)CC1	0	-0.03
Cc1csc([C@@H](C)CNC(=O)N(C)Cc2ncnn2CC(F)F)n1	3	-0.49

Compound	% Inhibition [%]	Z score
COC(=O)C[C@H](O)CCn1c(-c2ccc(F)cc2)c(-c2ccccc2)c(C(=O)Nc2ccccc2)c1C(C)C	-21	2.42
CC[C@H]1CN(c2ccccc2)CCN1C(=O)NCC1(C)COC1	-5	0.54
CC(=O)Nc1c(-c2ccc(C)cc2)c(C)nn1-c1ccc(C(=O)N2CCN(c3ccccc3)CC2)cc1	14	-1.62
Cc1sc(C(=O)N2CCC(O)CC2)cc1-c1ccc(F)cc1	-1	0.19
Nc1nc2c(s1)C[C@@H](NC(=O)Cn1ccccc1=O)CC2	-14	1.98
CC(C)OCCCNc1ncnc2c1OCCN2	-12	1.71
CN1CCC(N(CCc2ccccc2)C(=O)c2c(Cl)cnn2C)CC1	-8	1.02
O=C(Nc1cccnc1C(F)(F)F)c1cc2n(n1)CCCO2	-9	1.31
CC(C)n1ccnc1C(=O)NCCOCC(F)(F)F	12	-1.36
CCS(=O)(=O)N1CC(=O)N(c2cc(OC)cc(OC)c2)[C@](C)(C(=O)NC2CCCCCCC2)C1	-16	1.95
COc1nccc(N2CC[C@H](NC(=O)c3ccccn3)[C@@H](O)C2)c1C#N	7	-0.95
CC(C)CC1=NN(c2nc(-c3ccccn3)cs2)[C@@](O)(C(F)(F)F)C1	15	-2.47
COc1ccc(N(C)S(=O)(=O)CCCCC#N)cc1Cl	-4	0.45
Cc1nn(C)c2nc(-c3ccncc3)nc(N[C@H]3C[C@@H]4CC[C@H]3C4)c12	14	-2.77
O=C(NCC1CC1)[C@H]1CC(=O)N(CC2CCN(C(=O)C3CCOCC3)CC2)C1	-1	0.11
COc1ccccc1CCC(=O)N1CCCCC[C@H]1c1nnc(C)o1	-8	1.61
O=C(Nc1ccnn1C1CCN(Cc2ccccn2)CC1)c1cccnc1	2	-0.35
Cc1nn(C)cc1NC(=O)c1cnn(C(C)C)c1	-6	0.83
O=S(=O)(Nc1ccc(S(=O)(=O)N2CCCC2)cc1)c1ccc(F)cc1F	-12	1.83
O=C(COC(=O)CN1C(=O)c2ccccc2C1=O)NCCc1ccccc1	-2	0.26
Cc1cc2n(n1)CCN(C[C@@H]1[C@H]3CN(C(=O)c4c(C)noc4C)C[C@@H]13)C2	-4	0.71
Cc1nnc(CN2CCN(c3nonc3C)CC2)s1	-9	1.63

Compound	% Inhibition [%]	Z score
CC(C)NC(=O)c1cn2c(n1)CC[C@H](c1ccc(Oc3ccccc3)cc1)C2	9	-1.19
C[C@@H](CNC(=O)NC1CCCCC1)CN1CCCC1	-3	0.43
Cc1ccnc(N(C(=O)c2ccc(F)cc2)C(=O)c2ccc(F)cc2)c1	-13	1.7
Cc1cccc2nc(C(=O)NCCc3ncnn3C)c(F)n12	-11	1.56
Cc1noc(C)c1C[C@H](C)C(=O)Nc1nccc2ccncc12	-16	2.53
COc1ccccc1OC1(C(=O)O)CCN(Cc2ccc(F)cc2F)CC1	-4	0.71
CC[C@H](Nc1cccc(COCC(F)(F)C(F)F)c1)C(N)=O	-3	0.44
COc1ncccc1C(=O)NCc1ccnc(-c2ccco2)c1	0	0.02
Cn1c(=O)n([C@@H]2CCN(C(=O)c3ccsc3)C2)c2ncccc21	-8	1.38
Cc1cnc(C)c(N2C[C@H]3CC[C@@H](C2)N(CC2CC2)C3)n1	1	-0.18
NCCN1C(=O)CC[C@@H]2CN(c3ccc(-c4ccccc4)nn3)CC[C@@H]21	-18	1.82
CN(CCCn1cccn1)C(=O)c1csc(N)n1	-6	1.01
Cc1noc(CNS(=O)(=O)Cc2ccccc2)n1	-3	0.47
O=C(N[C@@H](C1CCOCC1)C1(CO)CCC1)C1Cc2ccccc2C1	3	-0.47
O=C1CCCc2cn(nn2)CCNC(=O)[C@H](Cc2ccccc2)N1	-1	0.22
Cc1n[nH]cc1CN(C)Cc1[nH]cnc1C	-4	0.71
CCc1cc(C(=O)N2CC(c3nc4ccccc4[nH]3)C2)n(C)n1	-5	0.64
CC(NC(C(N)=O)c1cccc(Br)c1)c1ccco1 (centres undefined)	1	-0.16
CCn1nc(-c2cccc([C@H](C)OC)c2)nc1N(C)C	-17	1.56
COC1CN(C(=O)c2oc(C3CC3)nc2C)C1	2	-0.34
CC[C@@H](c1ccc(F)cc1)n1cnc2c(cnc(=O)n2C)c1=O	-10	2.19
